In experiment [1] the test system is HSkMC (human skeletal muscle cells). Description: cytotoxicity call (relative viability < 0.9). Conditions: 10 µM.
Experiment [2] concerns S. aureus RN4220. Description: growth inhibition call (relative growth <= 0.2). Conditions: 50 µM.

The structures appear in SMILES notation. This is one part of the list.

Turning to `C[C@@H]1CN([C@H](C)CO)S(=O)(=O)c2ccc(C#CC3(O)CCCC3)cc2O[C@@H]1CN(C)C(=O)c1ccccc1`, the cytotoxicity call in experiment [1] was “inactive”. Besides, the growth inhibition call in experiment [2] is “inactive”.
`CO[C@H]1CN(C)C(=O)c2ccc(NC(=O)Nc3ccccc3F)cc2OC[C@H](C)N(Cc2ccccc2C(=O)O)C[C@@H]1C`: the cytotoxicity call in experiment [1] was “inactive”. In addition, the growth inhibition call in experiment [2] was “inactive”.
As to `CCCN(C)C[C@@H]1OCCCC[C@H](C)Oc2ccc(NC(=O)Nc3ccc4c(c3)OCO4)cc2C(=O)N([C@H](C)CO)C[C@@H]1C`, the cytotoxicity call in experiment [1] was “inactive”. The growth inhibition call in experiment [2] is “inactive”.
Consider `CN(C)C(=O)C[C@@H]1CC[C@H]2[C@H](COc3ccc(NS(=O)(=O)c4cccc(F)c4)cc3C(=O)N2C)O1`, for which the cytotoxicity call in experiment [1] is “inactive”. In experiment [2], the growth inhibition call is “inactive”.
Turning to `COc1ccc(S(=O)(=O)Nc2ccc3c(c2)C(=O)N([C@@H](C)CO)C[C@H](C)[C@H](CN(C)CC2CCCCC2)OCCCC[C@H](C)O3)cc1`, the cytotoxicity call in experiment [1] was “inactive”. For the same compound, the growth inhibition call in experiment [2] was “inactive”.
As to `C=CCC[C@@H](Cc1ccc(F)cc1)C(=O)OC[C@@H](Cc1ccccc1)NC(=O)[C@H](CC=C)CC(=O)N[C@@H](CO)Cc1ccccc1`, in experiment [1], the cytotoxicity call is “inactive”. The growth inhibition call in experiment [2] is “inactive”.
With `C[C@@H]1CN([C@@H](C)CO)C(=O)Cc2cc(NC(=O)Nc3ccc4c(c3)OCO4)ccc2O[C@@H]1CN(C)Cc1ccc(C(F)(F)F)cc1`, the cytotoxicity call in experiment [1] is “inactive”. Besides, in experiment [2], the growth inhibition call was “inactive”.
`Cc1noc(C)c1S(=O)(=O)N(C)C[C@H]1Oc2ccc(NC(=O)Nc3ccc4c(c3)OCO4)cc2C(=O)N([C@@H](C)CO)C[C@H]1C`: the cytotoxicity call in experiment [1] is “inactive”. The growth inhibition call in experiment [2] is “inactive”.
On to `O=c1[nH]nc(Br)c(=O)[nH]1`, for which, in experiment [1], the cytotoxicity call was “inactive”. Also, the growth inhibition call in experiment [2] was “inactive”.
Regarding `CO[C@H]1CN(C)C(=O)c2cc(NS(=O)(=O)c3cn(C)cn3)ccc2OC[C@H](C)N(CC2CC2)C[C@H]1C`, the cytotoxicity call in experiment [1] was “inactive”. In addition, the growth inhibition call in experiment [2] is “inactive”.
On to `COc1ccc(S(=O)(=O)Nc2ccc3c(c2)C(=O)N([C@H](C)CO)C[C@@H](C)[C@@H](CN(C)S(=O)(=O)c2ccc(Cl)cc2)OCCCC[C@H](C)O3)cc1`, for which the cytotoxicity call in experiment [1] is “inactive”. In addition, the growth inhibition call in experiment [2] was “inactive”.
For the compound `C[C@@H](O)CC1=C[C@H]([C@@H](C)O)OC1=O`, the cytotoxicity call in experiment [1] was “inactive”. The growth inhibition call in experiment [2] was “inactive”.
On to `C[C@@H]1CCCCO[C@@H](CN(C)C(=O)Nc2ccc(F)cc2)[C@@H](C)CN([C@H](C)CO)C(=O)c2cc(NC(=O)Nc3ccc(C(F)(F)F)cc3)ccc2O1`, for which the cytotoxicity call in experiment [1] was “inactive”. Also, in experiment [2], the growth inhibition call is “inactive”.
`O=C(CCCCCC(=O)Nc1ccccc1O)N/N=C/[C@H](O)[C@@H](O)[C@@H](O)[C@H](O)C(=O)O`: the cytotoxicity call in experiment [1] was “inactive”. In addition, in experiment [2], the growth inhibition call was “inactive”.
As to `CN(C)CCNC(=O)[C@H]1Cn2ccnc2C2(CCN(Cc3nccs3)CC2)O1`, the cytotoxicity call in experiment [1] is “inactive”. Also, the growth inhibition call in experiment [2] was “inactive”.
Consider `N#CCSc1n[nH]c(=O)[nH]c1=O`, for which, in experiment [1], the cytotoxicity call was “inactive”. Also, the growth inhibition call in experiment [2] was “inactive”.
`C[C@@H]1CCCCO[C@@H](CN(C)C(=O)C2CCCCC2)[C@H](C)CN([C@@H](C)CO)C(=O)c2cc(NS(=O)(=O)c3ccc(F)cc3)ccc2O1`: the cytotoxicity call in experiment [1] is “inactive”. Further, in experiment [2], the growth inhibition call is “inactive”.
As to `C[C@H]1CN([C@@H](C)CO)C(=O)c2cccc(NC(=O)C3CC3)c2O[C@H]1CN(C)Cc1ccc2c(c1)OCO2`, the cytotoxicity call in experiment [1] was “inactive”. Further, the growth inhibition call in experiment [2] was “inactive”.
For the compound `CC(C)NC(=O)Nc1ccc2c(c1)C(=O)N([C@H](C)CO)C[C@H](C)[C@H](CN(C)Cc1ccccc1)OCCCC[C@H](C)O2`, the cytotoxicity call in experiment [1] was “inactive”. The growth inhibition call in experiment [2] is “inactive”.
In the case of `C[C@H](CO)N1C[C@H](C)[C@@H](CN(C)Cc2ccc(Oc3ccccc3)cc2)Oc2cc(Br)ccc2S1(=O)=O`, the cytotoxicity call in experiment [1] was “inactive”. Also, the growth inhibition call in experiment [2] was “inactive”.
On to `O=c1c(O)cccc2cc(O)c(O)c(O)c12`, for which the cytotoxicity call in experiment [1] was “inactive”. The growth inhibition call in experiment [2] is “inactive”.
Turning to `C[C@H](CO)N1C[C@H](C)[C@@H](CN(C)C(=O)Nc2ccc(C(F)(F)F)cc2)Oc2ccc(NC(=O)Cc3ccccc3)cc2C1=O`, the cytotoxicity call in experiment [1] was “inactive”. In experiment [2], the growth inhibition call was “inactive”.
In the case of `C=CCn1c(O)c(C#N)c(C)cc1=O`, in experiment [1], the cytotoxicity call was “inactive”. In addition, the growth inhibition call in experiment [2] was “inactive”.
Regarding `C[C@H]1CN([C@@H](C)CO)C(=O)Cc2cc(NC(=O)Cc3cn(C)c4ccccc34)ccc2O[C@@H]1CN(C)S(C)(=O)=O`, in experiment [1], the cytotoxicity call was “inactive”. Besides, the growth inhibition call in experiment [2] is “inactive”.
For the compound `C[C@@H]1CN([C@H](C)CO)C(=O)c2cccc(NS(=O)(=O)c3ccc(Cl)cc3)c2O[C@H]1CN(C)Cc1ccc(-c2ccccc2)cc1`, the cytotoxicity call in experiment [1] is “inactive”. Besides, the growth inhibition call in experiment [2] was “inactive”.
On to `Cc1ccc(S(=O)(=O)N[C@@H]2CC[C@@H](CC(=O)N3CCC(Cc4ccccc4)CC3)O[C@@H]2CO)cc1`, for which the cytotoxicity call in experiment [1] was “inactive”. For the same compound, the growth inhibition call in experiment [2] was “inactive”.
Consider `N=C(N)NCCCCNC(=N)N.O=S(=O)(O)O`, for which the cytotoxicity call in experiment [1] is “inactive”. Moreover, the growth inhibition call in experiment [2] was “inactive”.
Take `COc1cc(S(=O)(=O)NCCN2CCN(S(=O)(=O)c3cc(OC)c(Cl)cc3OC)CC2)c(OC)cc1Cl`: in experiment [1], the cytotoxicity call is “inactive”. The growth inhibition call in experiment [2] is “inactive”.
Consider `C[C@@H]1CN([C@H](C)CO)C(=O)c2cc(NC(=O)Nc3ccccc3)ccc2O[C@@H]1CN(C)Cc1ccc(Cl)c(Cl)c1`, for which the cytotoxicity call in experiment [1] was “inactive”. For the same compound, in experiment [2], the growth inhibition call was “inactive”.
For `C[C@H](O)C#Cc1ccc2c(c1)O[C@@H](CN(C)C(=O)C1CCCCC1)[C@H](C)CN([C@H](C)CO)S2(=O)=O`, the cytotoxicity call in experiment [1] is “inactive”. Besides, the growth inhibition call in experiment [2] was “inactive”.
